In publication PMC10323892:
No constants are given. Whether binding was seen depends on the method and setting. For some of these results: In cells and extracts the contact can be indirect. Some results given as binding are weak or reduced against the parent protein; the word gives no strength. For some of these results: Where a sequence is shown, tags or fusion partners need not be part of it.

Sequences of proteins named here, by UniProt entry; tags and fusion partners are left off. A change or cut given only in a name is not applied to a line headed by its entry.
UniProt Q8ND76: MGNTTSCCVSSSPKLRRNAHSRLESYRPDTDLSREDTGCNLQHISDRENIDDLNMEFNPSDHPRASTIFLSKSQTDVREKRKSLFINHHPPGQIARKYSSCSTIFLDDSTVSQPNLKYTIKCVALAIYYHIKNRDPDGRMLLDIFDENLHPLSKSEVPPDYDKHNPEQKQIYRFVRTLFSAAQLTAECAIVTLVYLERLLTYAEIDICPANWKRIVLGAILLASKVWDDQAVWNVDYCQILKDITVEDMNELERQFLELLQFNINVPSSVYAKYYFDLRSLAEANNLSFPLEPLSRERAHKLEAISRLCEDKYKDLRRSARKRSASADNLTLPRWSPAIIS
UniProt P24385: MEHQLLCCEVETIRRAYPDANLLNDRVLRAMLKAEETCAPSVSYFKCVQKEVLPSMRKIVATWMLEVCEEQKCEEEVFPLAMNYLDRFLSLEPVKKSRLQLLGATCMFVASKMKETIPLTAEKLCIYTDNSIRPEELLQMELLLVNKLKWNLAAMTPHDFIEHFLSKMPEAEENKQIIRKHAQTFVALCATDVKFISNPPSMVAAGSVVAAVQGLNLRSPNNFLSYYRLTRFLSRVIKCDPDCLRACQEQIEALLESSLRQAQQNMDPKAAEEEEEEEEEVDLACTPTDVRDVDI
UniProt Q8N7R7: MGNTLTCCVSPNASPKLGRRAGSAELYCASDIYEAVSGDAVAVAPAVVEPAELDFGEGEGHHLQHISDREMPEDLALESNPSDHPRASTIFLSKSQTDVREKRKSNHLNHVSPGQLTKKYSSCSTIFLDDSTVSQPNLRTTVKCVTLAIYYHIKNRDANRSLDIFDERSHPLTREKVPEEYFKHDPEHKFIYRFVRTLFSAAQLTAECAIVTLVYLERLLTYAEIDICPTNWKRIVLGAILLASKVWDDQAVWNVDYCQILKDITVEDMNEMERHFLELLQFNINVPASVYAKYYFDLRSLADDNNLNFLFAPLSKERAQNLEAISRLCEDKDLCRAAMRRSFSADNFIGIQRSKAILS
UniProt O94921: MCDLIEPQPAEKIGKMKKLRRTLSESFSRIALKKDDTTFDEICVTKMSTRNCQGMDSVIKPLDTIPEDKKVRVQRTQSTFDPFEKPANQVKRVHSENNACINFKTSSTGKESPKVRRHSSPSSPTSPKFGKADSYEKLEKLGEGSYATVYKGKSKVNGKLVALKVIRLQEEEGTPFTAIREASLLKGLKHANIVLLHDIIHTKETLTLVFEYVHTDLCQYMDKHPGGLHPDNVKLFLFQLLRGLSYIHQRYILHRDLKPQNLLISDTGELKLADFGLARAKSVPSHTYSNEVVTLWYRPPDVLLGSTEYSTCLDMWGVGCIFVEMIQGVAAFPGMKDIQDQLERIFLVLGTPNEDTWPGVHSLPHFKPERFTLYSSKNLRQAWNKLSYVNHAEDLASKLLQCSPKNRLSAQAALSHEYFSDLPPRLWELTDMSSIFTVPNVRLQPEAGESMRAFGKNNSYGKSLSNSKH
UniProt Q00537: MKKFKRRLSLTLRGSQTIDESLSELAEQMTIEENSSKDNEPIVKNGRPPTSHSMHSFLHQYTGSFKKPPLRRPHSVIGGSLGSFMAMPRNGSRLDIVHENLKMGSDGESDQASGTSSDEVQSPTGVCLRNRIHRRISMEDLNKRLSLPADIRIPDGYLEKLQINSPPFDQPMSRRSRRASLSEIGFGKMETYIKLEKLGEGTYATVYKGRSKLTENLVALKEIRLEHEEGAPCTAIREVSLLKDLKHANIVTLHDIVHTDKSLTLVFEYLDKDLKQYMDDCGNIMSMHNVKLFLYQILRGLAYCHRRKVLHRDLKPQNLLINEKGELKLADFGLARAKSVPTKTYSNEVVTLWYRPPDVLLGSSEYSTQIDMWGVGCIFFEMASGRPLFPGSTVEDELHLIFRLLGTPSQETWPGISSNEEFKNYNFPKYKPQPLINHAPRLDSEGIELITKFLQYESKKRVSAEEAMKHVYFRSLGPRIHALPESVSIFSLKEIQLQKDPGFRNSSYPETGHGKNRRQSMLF
UniProt Q07002: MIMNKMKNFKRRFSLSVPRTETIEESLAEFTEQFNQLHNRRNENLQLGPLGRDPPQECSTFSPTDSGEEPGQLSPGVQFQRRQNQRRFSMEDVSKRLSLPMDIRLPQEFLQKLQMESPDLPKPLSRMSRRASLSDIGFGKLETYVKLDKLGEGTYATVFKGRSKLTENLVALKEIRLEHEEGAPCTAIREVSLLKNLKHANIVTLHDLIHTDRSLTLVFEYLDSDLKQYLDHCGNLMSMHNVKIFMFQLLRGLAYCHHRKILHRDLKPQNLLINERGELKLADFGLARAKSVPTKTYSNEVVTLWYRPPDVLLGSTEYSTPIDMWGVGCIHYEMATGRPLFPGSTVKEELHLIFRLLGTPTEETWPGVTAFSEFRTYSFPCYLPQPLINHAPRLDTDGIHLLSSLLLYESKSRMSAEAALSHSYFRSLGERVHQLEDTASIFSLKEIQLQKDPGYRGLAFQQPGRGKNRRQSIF
UniProt Q00536: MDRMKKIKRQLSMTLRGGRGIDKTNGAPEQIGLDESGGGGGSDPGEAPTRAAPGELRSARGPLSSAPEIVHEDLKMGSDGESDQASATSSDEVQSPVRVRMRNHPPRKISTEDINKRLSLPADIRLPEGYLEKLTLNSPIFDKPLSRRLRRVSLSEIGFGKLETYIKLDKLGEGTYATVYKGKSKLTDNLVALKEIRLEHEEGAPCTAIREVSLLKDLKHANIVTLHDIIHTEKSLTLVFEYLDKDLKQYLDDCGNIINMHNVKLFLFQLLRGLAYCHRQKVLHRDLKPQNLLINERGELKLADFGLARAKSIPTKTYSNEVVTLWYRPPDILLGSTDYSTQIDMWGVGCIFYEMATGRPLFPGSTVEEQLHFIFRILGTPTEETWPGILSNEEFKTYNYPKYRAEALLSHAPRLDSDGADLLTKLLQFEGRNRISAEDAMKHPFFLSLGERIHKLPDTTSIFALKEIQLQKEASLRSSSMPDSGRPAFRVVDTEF
UniProt Q00534: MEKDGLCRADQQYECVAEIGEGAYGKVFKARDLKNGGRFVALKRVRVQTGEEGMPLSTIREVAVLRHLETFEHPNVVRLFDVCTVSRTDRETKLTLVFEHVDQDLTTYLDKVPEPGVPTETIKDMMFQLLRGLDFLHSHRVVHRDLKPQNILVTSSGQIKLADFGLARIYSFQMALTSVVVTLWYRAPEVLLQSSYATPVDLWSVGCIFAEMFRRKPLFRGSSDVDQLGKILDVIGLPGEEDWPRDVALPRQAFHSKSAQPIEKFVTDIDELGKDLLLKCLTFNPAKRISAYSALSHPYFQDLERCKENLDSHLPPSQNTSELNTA
UniProt F1MA87: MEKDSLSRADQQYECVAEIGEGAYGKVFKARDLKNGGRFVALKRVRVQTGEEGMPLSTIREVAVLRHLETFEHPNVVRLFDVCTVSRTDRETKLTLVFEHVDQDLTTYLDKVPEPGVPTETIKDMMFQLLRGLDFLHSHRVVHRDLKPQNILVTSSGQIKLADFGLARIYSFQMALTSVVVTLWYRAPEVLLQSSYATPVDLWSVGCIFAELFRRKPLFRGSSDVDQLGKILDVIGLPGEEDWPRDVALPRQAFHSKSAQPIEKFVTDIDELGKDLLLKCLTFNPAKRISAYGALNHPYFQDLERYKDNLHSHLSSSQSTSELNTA
UniProt Q96Q40: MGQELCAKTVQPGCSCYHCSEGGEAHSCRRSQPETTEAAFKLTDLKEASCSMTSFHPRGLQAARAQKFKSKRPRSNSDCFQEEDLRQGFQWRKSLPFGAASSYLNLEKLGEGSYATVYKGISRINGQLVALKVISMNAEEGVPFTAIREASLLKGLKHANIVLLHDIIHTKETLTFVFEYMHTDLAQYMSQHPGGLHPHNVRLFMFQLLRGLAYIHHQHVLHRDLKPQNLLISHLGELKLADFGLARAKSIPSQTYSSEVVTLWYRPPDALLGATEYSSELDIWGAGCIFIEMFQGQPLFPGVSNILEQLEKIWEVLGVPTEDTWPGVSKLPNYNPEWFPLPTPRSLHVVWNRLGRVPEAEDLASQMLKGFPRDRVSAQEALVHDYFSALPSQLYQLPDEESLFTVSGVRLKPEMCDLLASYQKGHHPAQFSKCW

Key:
[1] = target: CCNY, yeast two-hybrid fusion (not stated (cDNA from cell lines)) (UniProt Q8ND76); test: two-hybrid; Gal4 system (Matchmaker Gold); by the legend cyclins as Gal4 DNA-BD baits and CDKs as Gal4 AD preys; strains Y187 and AH109 mated; growth on -Leu/-Trp/-His/-Ade selection medium, 30 °C; also spot-seeding of serial dilutions
[2] = target: T1, cyclin I (CCNI), yeast two-hybrid fusion (human) (UniProt Q14094); test: as above
T1 sequence: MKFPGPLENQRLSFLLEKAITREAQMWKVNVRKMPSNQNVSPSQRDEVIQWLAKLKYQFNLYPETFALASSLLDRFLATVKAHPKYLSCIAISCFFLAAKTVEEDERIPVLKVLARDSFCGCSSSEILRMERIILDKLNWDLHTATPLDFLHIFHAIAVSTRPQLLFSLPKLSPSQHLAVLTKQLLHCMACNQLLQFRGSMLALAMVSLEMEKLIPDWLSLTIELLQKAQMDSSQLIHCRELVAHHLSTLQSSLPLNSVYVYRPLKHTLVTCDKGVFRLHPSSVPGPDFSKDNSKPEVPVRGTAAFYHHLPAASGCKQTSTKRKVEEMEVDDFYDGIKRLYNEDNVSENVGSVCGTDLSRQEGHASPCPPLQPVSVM

[3] = target: SPY1, yeast two-hybrid fusion (not stated (cDNA from cell lines)) (UniProt Q5MJ70); test: as above
[4] = target: N-terminal Flag-tagged SPY1 (not stated (cDNA from cell lines)) (UniProt Q5MJ70); test: co-IP; HEK293T cells overexpressing Flag-SPY1; immunoprecipitation with anti-Flag antibody; western blot with an antibody against CDK16
[5] = target: GST-fused SPY1 (not stated (cDNA from cell lines)) (UniProt Q5MJ70); test: pull-down; trapping assay: GST-SPY1 on Glutathion-Sepharose resin incubated with extracts of A549 and U87 cells, 16 h, 4 °C; blot for CDK16; only the target purified
[6] = target: T2, CDK-binding-deficient CCNI mutant E103A, yeast two-hybrid fusion (human) (UniProt Q14094); test: two-hybrid; Gal4 system (Matchmaker Gold); by the legend cyclins as Gal4 DNA-BD baits and CDKs as Gal4 AD preys; strains Y187 and AH109 mated; growth on -Leu/-Trp/-His/-Ade selection medium, 30 °C; also spot-seeding of serial dilutions
T2 sequence: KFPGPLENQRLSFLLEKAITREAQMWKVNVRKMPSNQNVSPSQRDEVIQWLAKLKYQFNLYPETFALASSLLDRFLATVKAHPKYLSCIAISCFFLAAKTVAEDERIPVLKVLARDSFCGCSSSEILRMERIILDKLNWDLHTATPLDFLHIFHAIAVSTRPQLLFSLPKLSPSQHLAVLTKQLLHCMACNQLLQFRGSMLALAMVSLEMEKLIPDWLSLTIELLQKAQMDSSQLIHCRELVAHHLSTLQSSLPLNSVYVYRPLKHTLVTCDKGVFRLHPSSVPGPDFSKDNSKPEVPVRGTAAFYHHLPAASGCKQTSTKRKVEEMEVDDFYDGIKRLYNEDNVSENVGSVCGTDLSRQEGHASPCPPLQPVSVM

[7] = target: T3, recombinant GST-CCNI (human) (UniProt Q14094); test: pull-down; trapping assay: GST-cyclins on Glutathion-Sepharose resin incubated with rat whole brain extract, 16 h, 4 °C; only the target purified
T3 sequence: T1 sequence

[8] = target: GST-cyclin D (CCND1) (human) (UniProt P24385); test: as above
[9] = target: T4, CCNI construct with a different tag (human) (UniProt Q14094); test: co-IP; immunoprecipitation of a CCNI construct with a different tag (Fig. S4B); cells and antibody not given
T4 sequence: T1 sequence

[10] = target: T3, recombinant GST-CCNI (human); test: pull-down; trapping assay: GST-cyclins on Glutathion-Sepharose resin incubated with extract of EBV-immortalized lymphocytes, 4 h, 4 °C; blot for CDK6; only the target purified
CCNI-Flag (human) = target: T5, CCNI-Flag (human) (UniProt Q14094); test: co-IP; A549 cells transduced with Flag-tagged cyclins; extract (3–5 mg) with anti-Flag antibody-bound beads, 14–15 h, 4 °C; blot for CDK6
T5 sequence: T1 sequence

[11] = target: CCNYL1, yeast two-hybrid fusion (not stated (cDNA from cell lines)) (UniProt Q8N7R7); test: two-hybrid; Gal4 system (Matchmaker Gold); by the legend cyclins as Gal4 DNA-BD baits and CDKs as Gal4 AD preys; strains Y187 and AH109 mated; growth on -Leu/-Trp/-His/-Ade selection medium, 30 °C; also spot-seeding of serial dilutions

| Substance | binding [1] | binding [2] | binding [3] | also measured |
| --- | --- | --- | --- | --- |
| CDK14, yeast two-hybrid fusion (from UniProt O94921 1-469) | binds | binds | – | – |
| CDK17, yeast two-hybrid fusion (from UniProt Q00537 1-523) | binds | binds | binds | – |
| CDK18, yeast two-hybrid fusion (from UniProt Q07002 1-474) | binds | binds | binds | – |
| CDK16, endogenous (from UniProt Q00536 1-496) | – | – | – | binding [4]: binds; binding [5]: binds |
| CDK6, yeast two-hybrid fusion (from UniProt Q00534 1-326) | – | binds | – | binding [6]: no binding |
| CDK6, endogenous in rat whole brain extract (from UniProt F1MA87 1-326) | – | – | – | binding [7]: binds; binding [8]: binds |
| CDK6, endogenous (human cells) (from UniProt Q00534 1-326) | – | – | – | binding [9]: binds weakly; binding [10]: binds; binding (CCNI-Flag (human)): binds weakly |
| CDK16, yeast two-hybrid fusion (from UniProt Q00536 1-496) | – | binds | binds | binding [11]: binds |
| CDK5, yeast two-hybrid fusion (from UniProt Q00535 1-292) | – | binds | binds | – |

More lines, main results first:

| binding [1] | binding [2] | binding [3] | Substance | also measured |
| --- | --- | --- | --- | --- |
| – | no binding | – | CDK-binding-deficient CDK6 mutant R60A, yeast two-hybrid fusion (from UniProt Q00534 2-326) | – |
| binds | binds | – | CDK15, yeast two-hybrid fusion (from UniProt Q96Q40 1-435) | – |
